Results: patent US8188081B2, “Methods of treating inflammation using prokineticin 1 receptor antagonists” (Janssen Pharmaceutica, NV, priority 2005, dated 2012)
The source holds more than one record for some entries. This is not the full list of results. There may be further records. The records of an entry seem to repeat one measurement on other runs, samples or individuals. Brackets tell where a record comes from. A, B and so on number the origins entry by entry.

Biological target: PK1R (Rattus norvegicus, UniProt Q8R416)
UniProt Q8R416, sequence (Q8R416 whole entry): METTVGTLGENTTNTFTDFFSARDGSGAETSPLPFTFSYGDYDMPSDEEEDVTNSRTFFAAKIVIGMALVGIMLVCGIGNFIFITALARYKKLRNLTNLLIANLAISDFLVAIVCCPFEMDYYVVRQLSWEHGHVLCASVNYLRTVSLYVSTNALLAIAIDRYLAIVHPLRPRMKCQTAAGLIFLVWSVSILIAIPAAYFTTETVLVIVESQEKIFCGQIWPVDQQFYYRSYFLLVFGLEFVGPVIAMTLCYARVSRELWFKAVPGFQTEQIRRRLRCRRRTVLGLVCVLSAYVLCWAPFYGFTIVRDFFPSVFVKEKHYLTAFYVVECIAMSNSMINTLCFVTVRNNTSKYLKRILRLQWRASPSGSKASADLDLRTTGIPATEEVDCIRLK
Conditions: test compound 1 μM basolateral, 15 min; PK1 10 and 100 nM cumulative; FIGS. 9-11
Experimental: Methodology. The basic methodology for Using-type ion flux chambers used in these studies was the same as that described in detail above with the following modifications to the experimental protocol. […] The responses to two sequential EFS were used to guage tissue viability and comparability of the responses of individual tissues from each rat and between rats. Tissue conductance was measured at periodic intervals as changes in the amplitudes of brief short-circuit current responses evoked by application of 1 mV amplitude bi-polar pulses from a pulse generator using Ohm's Law. Three to four tissues from each rat were studied. The tissues from a given animal were grouped and assigned accordingly: one control tissue which received only vehicle followed by two consecutive doses of PK1 ligand added in a cumulative fashion to the basolateral surface of the tissue; the remaining two to three tissues from the same animal were assigned to be exposed to a given PK1 receptor antagonist (e.g., 3-4 tissues from 1 rat: Control, Antagonist1, Antagonist2, Antagonist3). Test compound was added to the basolateral tissue side reservoir at a final concentration of 1 μM and allowed a 15 minute incubation period prior to challenge with the PK1 peptide. […]

Q: Which “suppression of the PK1 evoked increase in Isc” value does the source give for `COc1ccc(Cn2c(N[C@H]3CCCC[C@@H]3NC(=N)N)nc(=O)n(Cc3ccc(Cl)c(Cl)c3)c2=O)cc1` [JNJ 28611921] here?
A: not suppressed [passage A] and failed to suppress [passage B]
